Assay results from the supplement of paper PMC3334620.
Over roughly 33,000 sequences, “E-score (-0.5 to 0.5)” has its median near -0.021; the highest 2% begin near 0.32. Some of the results follow.

Biological target: T1, Zap1 (UniProt P47043)
T1 sequence: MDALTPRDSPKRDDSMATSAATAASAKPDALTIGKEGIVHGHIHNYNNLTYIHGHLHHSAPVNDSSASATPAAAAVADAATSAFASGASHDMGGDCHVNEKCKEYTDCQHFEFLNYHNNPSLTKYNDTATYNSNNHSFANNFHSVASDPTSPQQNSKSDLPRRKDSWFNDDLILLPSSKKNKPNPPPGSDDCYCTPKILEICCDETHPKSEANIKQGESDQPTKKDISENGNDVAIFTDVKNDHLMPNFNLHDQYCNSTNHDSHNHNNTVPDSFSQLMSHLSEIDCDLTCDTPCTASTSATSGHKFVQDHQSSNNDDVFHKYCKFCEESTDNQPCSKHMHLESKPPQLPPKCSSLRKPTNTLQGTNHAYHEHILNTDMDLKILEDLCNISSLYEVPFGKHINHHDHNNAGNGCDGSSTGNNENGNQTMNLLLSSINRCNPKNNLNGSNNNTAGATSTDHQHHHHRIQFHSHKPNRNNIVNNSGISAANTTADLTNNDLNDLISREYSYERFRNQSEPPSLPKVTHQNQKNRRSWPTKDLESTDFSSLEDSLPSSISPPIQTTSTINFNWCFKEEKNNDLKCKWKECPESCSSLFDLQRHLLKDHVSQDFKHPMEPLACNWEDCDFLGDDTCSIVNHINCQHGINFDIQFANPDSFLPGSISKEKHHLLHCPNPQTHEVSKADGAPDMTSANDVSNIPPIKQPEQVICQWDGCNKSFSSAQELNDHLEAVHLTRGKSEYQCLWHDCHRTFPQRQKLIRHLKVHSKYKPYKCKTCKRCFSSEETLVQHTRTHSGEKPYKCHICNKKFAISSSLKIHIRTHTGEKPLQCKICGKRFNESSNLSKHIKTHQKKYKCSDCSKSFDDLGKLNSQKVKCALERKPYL
Assay: PBM E-score (8-mer binding enrichment) (E-score (-0.5 to 0.5)); higher = stronger / more preferred TF binding; most listed sequences are background and not binding sites
Details: protein concentration: 200 nM; construct: GST-full length
Experimental: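 Universal 'all 10-mer' protein binding microarrays (Agilent AMADID 015681) probed with GST-tagged S. cerevisiae TFs (full-length or DBD) made by in vitro transcription/translation (PURExpress), about 100-200 nM. Bound TF was detected with fluorescent anti-GST. Each ungapped 8-mer (which stands for itself and its reverse complement) is scored by the PBM enrichment score (E-score), a modified Wilcoxon-Mann-Whitney statistic from -0.5 to +0.5, computed with the Universal PBM Analysis Suite. Scale: above 0.35 generally sequence-specific binding.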

**Q.** How did the “PBM E-score” value turn out when AGGTATAG was run?
**A.** Its value is 0.209.

**Q.** How did the “PBM E-score” value turn out when GCGTAGGA was run?
**A.** The value was -0.212.

**Q.** For CTGAACAC, which “PBM E-score” value is on record?
**A.** Its value is 0.197.

**Q.** How did the “PBM E-score” value turn out when AGCCATCC was run?
**A.** Its value is -0.154.

**Q.** AGCTGGGA was tested. Which “PBM E-score” value did it give?
**A.** Its value is -0.303.

**Q.** How did the “PBM E-score” value turn out when CACAGCCA was run?
**A.** Its value is -0.0278.

**Q.** For AGGCCGTC, which “PBM E-score” value is on record?
**A.** Its value is -0.121.

**Q.** Which “PBM E-score” value does the source give for GAGTACCC here?
**A.** Its value is 0.342.

**Q.** Which “PBM E-score” value does the source give for CGCCCAGC here?
**A.** Its value is -0.209.

**Q.** Which “PBM E-score” value does the source give for GCAACGCC here?
**A.** Its value is -0.161.

**Q.** How did the “PBM E-score” value turn out when ATATTAAG was run?
**A.** The value was 0.126.

**Q.** AACGGCCA was tested. Which “PBM E-score” value did it give?
**A.** The value was 0.145.

**Q.** With CACTGGTC as the sequence, how does the “PBM E-score” value read?
**A.** Its value is -0.0725.

**Q.** Which “PBM E-score” value does the source give for AAAACTTT here?
**A.** Its value is 0.128.

**Q.** AAATGACC was tested. Which “PBM E-score” value did it give?
**A.** The value was 0.317.

**Q.** How did the “PBM E-score” value turn out when ACACGCGT was run?
**A.** Its value is 0.11.

**Q.** How did the “PBM E-score” value turn out when CGGTTACC was run?
**A.** The value was 0.444.

**Q.** How did the “PBM E-score” value turn out when GCGTCAAA was run?
**A.** The value was 0.0983.

**Q.** With AGTTGCTC as the sequence, how does the “PBM E-score” value read?
**A.** The value was -0.182.

**Q.** CGAAACGC was tested. Which “PBM E-score” value did it give?
**A.** Its value is -0.2.

**Q.** AGTAGCGG was tested. Which “PBM E-score” value did it give?
**A.** The value was -0.125.

**Q.** How did the “PBM E-score” value turn out when GAATGCCA was run?
**A.** Its value is -0.103.

**Q.** ACCAGTGG was tested. Which “PBM E-score” value did it give?
**A.** The value was 0.0092.

**Q.** ACAGACAG was tested. Which “PBM E-score” value did it give?
**A.** Its value is 0.144.

**Q.** Which “PBM E-score” value does the source give for GACGTCGA here?
**A.** Its value is -0.0298.

**Q.** For ACTGTCGA, which “PBM E-score” value is on record?
**A.** Its value is -0.0508.

**Q.** How did the “PBM E-score” value turn out when GGCCTAAA was run?
**A.** Its value is -0.0802.

**Q.** How did the “PBM E-score” value turn out when ATCCTTTC was run?
**A.** Its value is -0.129.

**Q.** For CCGATCTA, which “PBM E-score” value is on record?
**A.** The value was -0.0785.

**Q.** Which “PBM E-score” value does the source give for ACAGTGGT here?
**A.** Its value is 0.185.

**Q.** For GGCGGGGA, which “PBM E-score” value is on record?
**A.** Its value is 0.134.

**Q.** AGAACTAG was tested. Which “PBM E-score” value did it give?
**A.** The value was -0.0303.

**Q.** TCGCGCGA was tested. Which “PBM E-score” value did it give?
**A.** Its value is 0.196.

**Q.** Which “PBM E-score” value does the source give for TAACGTTA here?
**A.** The value was 0.118.

**Q.** ATTGATCC was tested. Which “PBM E-score” value did it give?
**A.** The value was -0.045.

**Q.** AGATCCAA was tested. Which “PBM E-score” value did it give?
**A.** Its value is 0.042.

**Q.** CGAATACC was tested. Which “PBM E-score” value did it give?
**A.** Its value is 0.167.

**Q.** How did the “PBM E-score” value turn out when CAAGTGCG was run?
**A.** The value was -0.0607.

**Q.** Which “PBM E-score” value does the source give for AGGCCGGG here?
**A.** The value was -0.0878.

**Q.** AGATCTCC was tested. Which “PBM E-score” value did it give?
**A.** The value was -0.307.

**Q.** Which “PBM E-score” value does the source give for CGCAGAAG here?
**A.** Its value is -0.0593.

**Q.** With ATACCGGA as the sequence, how does the “PBM E-score” value read?
**A.** Its value is -0.0537.

**Q.** Which “PBM E-score” value does the source give for GGGTCGAA here?
**A.** Its value is 0.195.

**Q.** With GCCTTGTA as the sequence, how does the “PBM E-score” value read?
**A.** Its value is -0.069.

**Q.** With CTATCGCA as the sequence, how does the “PBM E-score” value read?
**A.** Its value is -0.0753.

**Q.** How did the “PBM E-score” value turn out when ATGTGACA was run?
**A.** The value was 0.129.

**Q.** Which “PBM E-score” value does the source give for CCCAATCA here?
**A.** Its value is 0.0881.

**Q.** Which “PBM E-score” value does the source give for CGTAGGTA here?
**A.** Its value is 0.178.

**Q.** For GAGCCACA, which “PBM E-score” value is on record?
**A.** Its value is -0.0771.

**Q.** Which “PBM E-score” value does the source give for CGCCAAAG here?
**A.** Its value is -0.0147.

**Q.** How did the “PBM E-score” value turn out when ATAGATTG was run?
**A.** Its value is 0.119.

**Q.** How did the “PBM E-score” value turn out when AAACTCAC was run?
**A.** Its value is -0.025.

**Q.** For ACGACTGC, which “PBM E-score” value is on record?
**A.** The value was -0.037.

**Q.** Which “PBM E-score” value does the source give for CTGTGCTA here?
**A.** The value was -0.0547.

**Q.** Which “PBM E-score” value does the source give for AACCCTGA here?
**A.** The value was 0.461.

**Q.** How did the “PBM E-score” value turn out when TACAAACA was run?
**A.** Its value is 0.265.

**Q.** How did the “PBM E-score” value turn out when TTGCCAAA was run?
**A.** The value was 0.0251.

**Q.** For CCCTCGCC, which “PBM E-score” value is on record?
**A.** The value was -0.0175.

**Q.** With CATGCCTA as the sequence, how does the “PBM E-score” value read?
**A.** Its value is -0.109.

**Q.** Which “PBM E-score” value does the source give for AACGCCAG here?
**A.** Its value is -0.055.

**Q.** ATCGATTG was tested. Which “PBM E-score” value did it give?
**A.** The value was -0.0139.

**Q.** For GCAAGGGC, which “PBM E-score” value is on record?
**A.** The value was -0.228.

**Q.** For CTTATGCC, which “PBM E-score” value is on record?
**A.** Its value is 0.104.

**Q.** CACGCGCG was tested. Which “PBM E-score” value did it give?
**A.** Its value is -0.155.

**Q.** Which “PBM E-score” value does the source give for CCGGCACC here?
**A.** The value was -0.0823.

**Q.** Which “PBM E-score” value does the source give for ACCTGTAG here?
**A.** The value was 0.0245.

**Q.** Which “PBM E-score” value does the source give for CATCCCGG here?
**A.** Its value is -0.251.

**Q.** For ATGTGCCG, which “PBM E-score” value is on record?
**A.** Its value is -0.166.

**Q.** Which “PBM E-score” value does the source give for GTGGCAGA here?
**A.** Its value is -0.315.

**Q.** Which “PBM E-score” value does the source give for ATAAGAGG here?
**A.** The value was -0.0341.

**Q.** With ACAAGAAG as the sequence, how does the “PBM E-score” value read?
**A.** The value was 0.231.

**Q.** With CGAAATTA as the sequence, how does the “PBM E-score” value read?
**A.** The value was 0.0048.

**Q.** Which “PBM E-score” value does the source give for GAACATGA here?
**A.** Its value is 0.0971.

**Q.** For CCGCTTAC, which “PBM E-score” value is on record?
**A.** Its value is -0.0249.

**Q.** How did the “PBM E-score” value turn out when CAGGCTGG was run?
**A.** Its value is -0.168.

**Q.** How did the “PBM E-score” value turn out when CTAATCCC was run?
**A.** The value was 0.0369.

**Q.** Which “PBM E-score” value does the source give for AAGCACAC here?
**A.** The value was -0.193.

**Q.** How did the “PBM E-score” value turn out when ATCCCGGC was run?
**A.** The value was -0.152.

**Q.** Which “PBM E-score” value does the source give for CTATCGGA here?
**A.** Its value is 0.00899.

**Q.** With AAAGCGCG as the sequence, how does the “PBM E-score” value read?
**A.** The value was -0.0105.

**Q.** GCAATATA was tested. Which “PBM E-score” value did it give?
**A.** The value was 0.0538.

**Q.** How did the “PBM E-score” value turn out when CTAGACCC was run?
**A.** The value was -0.0629.

**Q.** TGTTTCAA was tested. Which “PBM E-score” value did it give?
**A.** The value was 0.225.

**Q.** With ATTTCCGA as the sequence, how does the “PBM E-score” value read?
**A.** The value was 0.0192.

**Q.** How did the “PBM E-score” value turn out when AAGTCTGC was run?
**A.** Its value is -0.222.

**Q.** How did the “PBM E-score” value turn out when AAACAGCA was run?
**A.** The value was 0.0469.
